One molecule from article PMC10600005 (Nature, 2023) can be followed below.

This assay relates to B. fragilis NrN. Description: HPLC product analysis. In kind it is biochemical, Bacteroides fragilis. The following applies: 0.5 mM MnCl2, pH 7.5, 37 C; 1 uM enzyme, 100 uM substrate; products SAM and AMP.

On to `C[S+](CC[C@H](N)C(=O)O)C[C@H]1O[C@@H](n2cnc3c(N)ncnc32)[C@H](O)[C@@H]1OP(=O)(O)OC[C@H]1O[C@@H](n2cnc3c(N)ncnc32)[C@H](O)[C@@H]1O` (stereo partly shown) [SAM-AMP], for which the HPLC product analysis entry is “NrN specifically degrades SAM-AMP to SAM and AMP”.
